Source: the supplement of paper PMC9151546
Most values come without repeats; read them as rough.

Key:
CHO-K1 [1] = experiment: relative survival (nuclei to bead ratio vs DMSO control) (% of vehicle control); higher = more surviving cells
Experimental: (§1)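 Flow-cytometric in vitro micronucleus assay (Litron MicroFlow) in CHO-K1 cells in 96-well plates, 19 concentrations (4.5-200 µM, n=1 per concentration). Without S9, cells were exposed for 24 h and sampled at 48 h. With Aroclor 1254-induced rat liver S9, cells were exposed for 3-4 h and sampled at 27-28 h. Read-outs are %MN and %hypodiploid nuclei relative to nucleated events, and relative survival as the nuclei-to-bead ratio versus the 1% DMSO vehicle control (x100).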

CHO-K1 [2] = experiment: micronucleus frequency (% of nucleated events); higher = more micronuclei (genotoxic)
CHO-K1 [3] = experiment: hypodiploid nuclei frequency (% of nucleated events); higher = more hypodiploid events (aneugenic)
Experimental: as §1
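For hypodiploid nuclei frequency (% of nucleated events) in this document: hypodiploid nuclei gated on a flow cytometer with 488 nm excitation after SYTOX Green staining, cultures at 37 °C, positive controls vinblastine without S9 and cyclophosphamide with S9.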
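For micronucleus frequency (% of nucleated events) in this document: cells lysed with nuclei stained by SYTOX Green, then micronucleus-gated events counted against nucleated events by flow cytometry with 488 nm excitation.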
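For relative survival (nuclei to bead ratio vs DMSO control) in this document: Lysed-cell nuclei stained with SYTOX Green and counted against counting beads by flow cytometry at 488 nm excitation, with vinblastine (no S9) and cyclophosphamide (plus S9) as positive controls.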

c1ccc(/N=N/c2ccccc2)cc1 [Azobenzene]
Conditions | hypodiploid nuclei frequency, CHO-K1 [3] [%] | micronucleus frequency, CHO-K1 [2] [%] | relative survival, CHO-K1 [1]
concentration: 4.5 (µM), S9 metabolic activation: with S9, exposure time: 3-4 hours | 0.18 | 1.92 | 112
concentration: 4.5 (µM), S9 metabolic activation: without S9, exposure time: 24 hours | 1.08 | 1.88 | 117
concentration: 5.63 (µM), S9 metabolic activation: with S9, exposure time: 3-4 hours | 0.5 | 2.72 | 101
concentration: 5.63 (µM), S9 metabolic activation: without S9, exposure time: 24 hours | 0.7 | 2.42 | 105
concentration: 7.04 (µM), S9 metabolic activation: with S9, exposure time: 3-4 hours | 0.32 | 2.34 | 95.3
concentration: 7.04 (µM), S9 metabolic activation: without S9, exposure time: 24 hours | 0.76 | 2.34 | 101
concentration: 8.8 (µM), S9 metabolic activation: with S9, exposure time: 3-4 hours | 0.34 | 2.06 | 96.4
concentration: 8.8 (µM), S9 metabolic activation: without S9, exposure time: 24 hours | 1.16 | 2.66 | 81.6
concentration: 11 (µM), S9 metabolic activation: with S9, exposure time: 3-4 hours | 0.24 | 1.34 | 116
concentration: 11 (µM), S9 metabolic activation: without S9, exposure time: 24 hours | 0.86 | 2.58 | 112
concentration: 13.7 (µM), S9 metabolic activation: with S9, exposure time: 3-4 hours | 0.36 | 1.9 | 121
concentration: 13.7 (µM), S9 metabolic activation: without S9, exposure time: 24 hours | 0.7 | 2.1 | 97.8
concentration: 17.2 (µM), S9 metabolic activation: with S9, exposure time: 3-4 hours | 0.22 | 1.92 | 100
concentration: 17.2 (µM), S9 metabolic activation: without S9, exposure time: 24 hours | 0.9 | 2.28 | 110
concentration: 21.5 (µM), S9 metabolic activation: with S9, exposure time: 3-4 hours | 0.34 | 1.84 | 93
concentration: 21.5 (µM), S9 metabolic activation: without S9, exposure time: 24 hours | 1.1 | 3.42 | 106
concentration: 26.8 (µM), S9 metabolic activation: with S9, exposure time: 3-4 hours | 0.26 | 2.34 | 118
concentration: 26.8 (µM), S9 metabolic activation: without S9, exposure time: 24 hours | 1.22 | 2.18 | 97.4
concentration: 33.6 (µM), S9 metabolic activation: with S9, exposure time: 3-4 hours | 0.28 | 2.76 | 86.8
concentration: 33.6 (µM), S9 metabolic activation: without S9, exposure time: 24 hours | 1.18 | 1.76 | 110
concentration: 41.9 (µM), S9 metabolic activation: with S9, exposure time: 3-4 hours | 0.66 | 3.56 | 83.7
concentration: 41.9 (µM), S9 metabolic activation: without S9, exposure time: 24 hours | 0.86 | 1.88 | 114
concentration: 52.4 (µM), S9 metabolic activation: with S9, exposure time: 3-4 hours | 1.01 | 6.27 | 54.7
concentration: 52.4 (µM), S9 metabolic activation: without S9, exposure time: 24 hours | 1.04 | 1.88 | 124
concentration: 65.5 (µM), S9 metabolic activation: with S9, exposure time: 3-4 hours | – | – | 37.5
concentration: 65.5 (µM), S9 metabolic activation: without S9, exposure time: 24 hours | 1.12 | 1.9 | 110
concentration: 81.9 (µM), S9 metabolic activation: with S9, exposure time: 3-4 hours | – | – | 32.5
concentration: 81.9 (µM), S9 metabolic activation: without S9, exposure time: 24 hours | 1.48 | 1.88 | 94.7
concentration: 102 (µM), S9 metabolic activation: with S9, exposure time: 3-4 hours | – | – | 24.3
concentration: 102 (µM), S9 metabolic activation: without S9, exposure time: 24 hours | 1.36 | 2.42 | 91.3
concentration: 128 (µM), S9 metabolic activation: with S9, exposure time: 3-4 hours | – | – | 20.3
concentration: 128 (µM), S9 metabolic activation: without S9, exposure time: 24 hours | 1.88 | 2.32 | 95.1
concentration: 160 (µM), S9 metabolic activation: with S9, exposure time: 3-4 hours | – | – | 20.5
concentration: 160 (µM), S9 metabolic activation: without S9, exposure time: 24 hours | 2.02 | 2.4 | 127
concentration: 200 (µM), S9 metabolic activation: with S9, exposure time: 3-4 hours | – | – | 4.95
concentration: 200 (µM), S9 metabolic activation: without S9, exposure time: 24 hours | 2.66 | 2.38 | 88.2

OCc1ccccc1 [Benzyl alcohol]
Conditions | hypodiploid nuclei frequency, CHO-K1 [3] [%] | micronucleus frequency, CHO-K1 [2] [%] | relative survival, CHO-K1 [1]
concentration: 4.48 (µM), S9 metabolic activation: with S9, exposure time: 3-4 hours | 0.26 | 1.72 | 103
concentration: 4.48 (µM), S9 metabolic activation: without S9, exposure time: 24 hours | 0.77 | 1.78 | 106
concentration: 5.6 (µM), S9 metabolic activation: with S9, exposure time: 3-4 hours | 0.46 | 2.86 | 117
concentration: 5.6 (µM), S9 metabolic activation: without S9, exposure time: 24 hours | 0.56 | 1.6 | 121
concentration: 7 (µM), S9 metabolic activation: with S9, exposure time: 3-4 hours | 0.3 | 1.34 | 102
concentration: 7 (µM), S9 metabolic activation: without S9, exposure time: 24 hours | 0.78 | 2.16 | 116
concentration: 8.75 (µM), S9 metabolic activation: with S9, exposure time: 3-4 hours | 0.36 | 1.62 | 115
concentration: 8.75 (µM), S9 metabolic activation: without S9, exposure time: 24 hours | 0.53 | 1.81 | 116
concentration: 10.9 (µM), S9 metabolic activation: with S9, exposure time: 3-4 hours | 0.18 | 1.24 | 112
concentration: 10.9 (µM), S9 metabolic activation: without S9, exposure time: 24 hours | 0.55 | 1.84 | 115
concentration: 13.7 (µM), S9 metabolic activation: with S9, exposure time: 3-4 hours | 0.2 | 1.48 | 108
concentration: 13.7 (µM), S9 metabolic activation: without S9, exposure time: 24 hours | 0.66 | 1.47 | 117
concentration: 17.1 (µM), S9 metabolic activation: with S9, exposure time: 3-4 hours | 0.36 | 1.6 | 131
concentration: 17.1 (µM), S9 metabolic activation: without S9, exposure time: 24 hours | 0.88 | 1.76 | 138
concentration: 21.4 (µM), S9 metabolic activation: with S9, exposure time: 3-4 hours | 0.4 | 1.54 | 122
concentration: 21.4 (µM), S9 metabolic activation: without S9, exposure time: 24 hours | 0.9 | 1.66 | 112
concentration: 26.7 (µM), S9 metabolic activation: with S9, exposure time: 3-4 hours | 0.34 | 1.52 | 157
concentration: 26.7 (µM), S9 metabolic activation: without S9, exposure time: 24 hours | 0.8 | 1.82 | 115
concentration: 33.4 (µM), S9 metabolic activation: with S9, exposure time: 3-4 hours | 0.2 | 1.44 | 110
concentration: 33.4 (µM), S9 metabolic activation: without S9, exposure time: 24 hours | 0.71 | 1.42 | 108
concentration: 41.7 (µM), S9 metabolic activation: with S9, exposure time: 3-4 hours | 0.34 | 1.42 | 105
concentration: 41.7 (µM), S9 metabolic activation: without S9, exposure time: 24 hours | 0.65 | 1.72 | 102
concentration: 52.2 (µM), S9 metabolic activation: with S9, exposure time: 3-4 hours | 0.44 | 1.24 | 102
concentration: 52.2 (µM), S9 metabolic activation: without S9, exposure time: 24 hours | 0.7 | 1.63 | 114
concentration: 65.2 (µM), S9 metabolic activation: with S9, exposure time: 3-4 hours | 0.38 | 0.9 | 121
concentration: 65.2 (µM), S9 metabolic activation: without S9, exposure time: 24 hours | 0.83 | 2.7 | 104
concentration: 81.5 (µM), S9 metabolic activation: with S9, exposure time: 3-4 hours | 0.2 | 1.16 | 131
concentration: 81.5 (µM), S9 metabolic activation: without S9, exposure time: 24 hours | 0.89 | 2.25 | 110
concentration: 102 (µM), S9 metabolic activation: with S9, exposure time: 3-4 hours | 0.22 | 1.34 | 120
concentration: 102 (µM), S9 metabolic activation: without S9, exposure time: 24 hours | 1 | 2.05 | 109
concentration: 127 (µM), S9 metabolic activation: with S9, exposure time: 3-4 hours | 0.3 | 1.3 | 122
concentration: 127 (µM), S9 metabolic activation: without S9, exposure time: 24 hours | 1.03 | 2.19 | 108
concentration: 159 (µM), S9 metabolic activation: with S9, exposure time: 3-4 hours | 0.3 | 1.5 | 133
concentration: 159 (µM), S9 metabolic activation: without S9, exposure time: 24 hours | 1.16 | 2.26 | 117
concentration: 199 (µM), S9 metabolic activation: with S9, exposure time: 3-4 hours | 0.2 | 1.28 | 139
concentration: 199 (µM), S9 metabolic activation: without S9, exposure time: 24 hours | 1.34 | 2.1 | 109

O=[N+]([O-])C(Br)(CO)CO [Bronopol]
Conditions | hypodiploid nuclei frequency, CHO-K1 [3] [%] | micronucleus frequency, CHO-K1 [2] [%] | relative survival, CHO-K1 [1]
concentration: 4.5 (µM), S9 metabolic activation: with S9, exposure time: 3-4 hours | 0.08 | 0.6 | 65.5
concentration: 4.5 (µM), S9 metabolic activation: without S9, exposure time: 24 hours | 0.36 | 2.24 | 117
concentration: 5.63 (µM), S9 metabolic activation: with S9, exposure time: 3-4 hours | 0.2 | 0.76 | 83.4
concentration: 5.63 (µM), S9 metabolic activation: without S9, exposure time: 24 hours | 0.42 | 1.88 | 128
concentration: 7.04 (µM), S9 metabolic activation: with S9, exposure time: 3-4 hours | 0.16 | 0.56 | 66.3
concentration: 7.04 (µM), S9 metabolic activation: without S9, exposure time: 24 hours | 0.32 | 1.48 | 119
concentration: 8.8 (µM), S9 metabolic activation: with S9, exposure time: 3-4 hours | 0.22 | 0.96 | 74.3
concentration: 8.8 (µM), S9 metabolic activation: without S9, exposure time: 24 hours | 0.62 | 1.62 | 132
concentration: 11 (µM), S9 metabolic activation: with S9, exposure time: 3-4 hours | 0.3 | 1.06 | 68.7
concentration: 11 (µM), S9 metabolic activation: without S9, exposure time: 24 hours | 0.48 | 1.82 | 121
concentration: 13.7 (µM), S9 metabolic activation: with S9, exposure time: 3-4 hours | 0.22 | 0.7 | 84.2
concentration: 13.7 (µM), S9 metabolic activation: without S9, exposure time: 24 hours | 0.52 | 1.54 | 119
concentration: 17.2 (µM), S9 metabolic activation: with S9, exposure time: 3-4 hours | 0.17 | 1.09 | 82
concentration: 17.2 (µM), S9 metabolic activation: without S9, exposure time: 24 hours | 0.62 | 1.46 | 119
concentration: 21.5 (µM), S9 metabolic activation: with S9, exposure time: 3-4 hours | 0.24 | 1.01 | 71
concentration: 21.5 (µM), S9 metabolic activation: without S9, exposure time: 24 hours | 0.56 | 1.64 | 132
concentration: 26.8 (µM), S9 metabolic activation: with S9, exposure time: 3-4 hours | 0.18 | 1.11 | 57.2
concentration: 26.8 (µM), S9 metabolic activation: without S9, exposure time: 24 hours | 0.34 | 1.06 | 113
concentration: 33.6 (µM), S9 metabolic activation: with S9, exposure time: 3-4 hours | 0.27 | 1.3 | 55.8
concentration: 33.6 (µM), S9 metabolic activation: without S9, exposure time: 24 hours | 0.56 | 1.52 | 124
concentration: 41.9 (µM), S9 metabolic activation: with S9, exposure time: 3-4 hours | 0.33 | 1.71 | 50.4
concentration: 41.9 (µM), S9 metabolic activation: without S9, exposure time: 24 hours | 0.68 | 2.02 | 110
concentration: 52.4 (µM), S9 metabolic activation: with S9, exposure time: 3-4 hours | – | – | 22.1
concentration: 52.4 (µM), S9 metabolic activation: without S9, exposure time: 24 hours | 0.72 | 4.04 | 62.9
concentration: 65.5 (µM), S9 metabolic activation: with S9, exposure time: 3-4 hours | – | – | 13.6
concentration: 65.5 (µM), S9 metabolic activation: without S9, exposure time: 24 hours | – | – | 25.3
concentration: 81.9 (µM), S9 metabolic activation: with S9, exposure time: 3-4 hours | – | – | 1.24
concentration: 81.9 (µM), S9 metabolic activation: without S9, exposure time: 24 hours | – | – | 2.1
concentration: 200 (µM), S9 metabolic activation: with S9, exposure time: 3-4 hours | – | – | 0.02
